Among the data in publication PMC3462795 are binding values, retold here.

Chains of the proteins cited; added tags and fusions are not shown.
UniProt O43747: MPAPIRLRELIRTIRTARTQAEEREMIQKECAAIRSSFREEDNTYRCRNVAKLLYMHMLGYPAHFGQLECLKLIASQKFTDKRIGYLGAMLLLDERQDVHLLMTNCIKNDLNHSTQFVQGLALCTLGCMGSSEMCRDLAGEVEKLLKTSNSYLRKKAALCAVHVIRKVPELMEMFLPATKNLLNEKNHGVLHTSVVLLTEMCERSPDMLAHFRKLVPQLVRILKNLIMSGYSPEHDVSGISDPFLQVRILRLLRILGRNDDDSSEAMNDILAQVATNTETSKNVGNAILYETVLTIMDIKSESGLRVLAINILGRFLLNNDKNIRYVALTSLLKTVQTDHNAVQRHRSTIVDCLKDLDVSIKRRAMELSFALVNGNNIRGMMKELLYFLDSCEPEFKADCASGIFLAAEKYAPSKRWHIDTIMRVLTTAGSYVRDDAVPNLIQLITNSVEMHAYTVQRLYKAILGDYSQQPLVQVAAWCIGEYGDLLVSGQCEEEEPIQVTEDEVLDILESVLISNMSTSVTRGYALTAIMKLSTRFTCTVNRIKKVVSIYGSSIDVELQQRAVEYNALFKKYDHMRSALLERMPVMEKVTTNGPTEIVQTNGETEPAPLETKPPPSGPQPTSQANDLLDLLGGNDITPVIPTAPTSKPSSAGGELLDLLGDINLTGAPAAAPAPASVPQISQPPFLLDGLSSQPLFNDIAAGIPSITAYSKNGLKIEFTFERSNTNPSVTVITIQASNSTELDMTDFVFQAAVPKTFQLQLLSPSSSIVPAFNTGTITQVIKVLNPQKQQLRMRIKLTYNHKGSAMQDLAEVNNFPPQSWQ
UniProt P63010: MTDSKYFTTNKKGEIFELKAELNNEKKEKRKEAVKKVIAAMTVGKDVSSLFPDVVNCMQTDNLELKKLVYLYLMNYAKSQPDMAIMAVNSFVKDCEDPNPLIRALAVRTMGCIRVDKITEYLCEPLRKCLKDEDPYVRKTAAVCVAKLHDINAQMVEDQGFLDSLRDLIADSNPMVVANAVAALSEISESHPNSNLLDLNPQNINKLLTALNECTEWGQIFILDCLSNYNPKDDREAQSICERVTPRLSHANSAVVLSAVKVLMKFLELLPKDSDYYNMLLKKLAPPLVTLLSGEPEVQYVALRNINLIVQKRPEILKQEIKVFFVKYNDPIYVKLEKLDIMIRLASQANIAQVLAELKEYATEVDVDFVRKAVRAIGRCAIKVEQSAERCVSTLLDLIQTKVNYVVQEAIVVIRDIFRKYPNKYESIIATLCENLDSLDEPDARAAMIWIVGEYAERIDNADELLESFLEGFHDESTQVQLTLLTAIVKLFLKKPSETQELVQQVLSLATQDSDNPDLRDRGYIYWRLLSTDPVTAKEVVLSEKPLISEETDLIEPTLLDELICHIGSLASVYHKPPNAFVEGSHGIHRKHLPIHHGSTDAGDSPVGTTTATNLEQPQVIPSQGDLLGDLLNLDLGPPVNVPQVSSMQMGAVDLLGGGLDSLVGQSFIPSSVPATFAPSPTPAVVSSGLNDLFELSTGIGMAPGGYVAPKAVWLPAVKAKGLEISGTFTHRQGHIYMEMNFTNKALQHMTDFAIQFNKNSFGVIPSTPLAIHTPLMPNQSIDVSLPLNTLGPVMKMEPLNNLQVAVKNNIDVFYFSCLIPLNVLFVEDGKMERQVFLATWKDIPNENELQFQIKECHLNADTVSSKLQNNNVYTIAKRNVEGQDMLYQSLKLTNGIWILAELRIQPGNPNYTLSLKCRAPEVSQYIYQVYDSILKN

Changes are numbered by the printed parent chain. No constants are given. Whether binding was seen depends on the method and setting. Binding seen in cells or lysates may run through a third protein. Some entries that bind do so weakly or less than the wild type. For some of these results: Where a sequence is shown, tags or fusion partners need not be part of it.

Test [1] addresses T1, GST-actopaxin (full-length) (UniProt Q9HB97).
T1 sequence: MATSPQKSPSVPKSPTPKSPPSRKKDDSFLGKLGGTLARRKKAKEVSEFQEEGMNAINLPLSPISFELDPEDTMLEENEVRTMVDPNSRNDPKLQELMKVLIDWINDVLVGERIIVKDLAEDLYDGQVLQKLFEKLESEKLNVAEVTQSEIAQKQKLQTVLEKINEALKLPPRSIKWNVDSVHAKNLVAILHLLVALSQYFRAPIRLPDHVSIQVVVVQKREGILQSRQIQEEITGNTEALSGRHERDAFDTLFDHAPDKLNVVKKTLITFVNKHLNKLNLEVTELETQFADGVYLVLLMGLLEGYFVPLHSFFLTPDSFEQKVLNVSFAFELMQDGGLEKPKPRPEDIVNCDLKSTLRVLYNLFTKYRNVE
Briefly: pull-down; GST fusion proteins incubated with clarified U2OS lysate (20 mM Tris/HCl pH 7.6, 50 mM NaCl, 1% NP-40, 10% glycerol), 2 hours at 4°C, washed 3x, Western blot; only the target purified. On the technique in general: A western blot detects proteins with antibodies after separation by electrophoresis.

Test [2] addresses T2, GST-actopaxin 1-95 (UniProt Q9HB97).
T2 sequence: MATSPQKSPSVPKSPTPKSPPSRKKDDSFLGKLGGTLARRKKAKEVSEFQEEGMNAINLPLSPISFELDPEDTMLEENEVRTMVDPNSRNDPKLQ
Described as above.

Test [3] has as its target T3, GST-actopaxin 96-372 (UniProt Q9HB97).
T3 sequence: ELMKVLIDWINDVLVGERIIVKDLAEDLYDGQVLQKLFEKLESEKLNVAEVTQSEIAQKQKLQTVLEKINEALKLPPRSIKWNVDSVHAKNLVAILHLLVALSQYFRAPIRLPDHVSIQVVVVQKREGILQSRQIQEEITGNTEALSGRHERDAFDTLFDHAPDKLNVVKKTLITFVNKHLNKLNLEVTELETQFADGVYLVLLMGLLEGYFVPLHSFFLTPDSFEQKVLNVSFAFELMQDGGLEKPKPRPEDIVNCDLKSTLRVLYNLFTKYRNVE
The test is described as above.

The target in test [4] is T4, GFP-actopaxin 1–95 (UniProt Q9HB97).
T4 sequence: T2 sequence
The test can be described thus: co-IP; immunoprecipitation of GFP from U2OS cells expressing GFP empty vector or GFP-actopaxin 1–95; blot for β2-adaptin.

Test [5] has as its target T5, actopaxin (endogenous) (human (endogenous in U2OS)) (UniProt Q9NVD7).
T5 sequence: T1 sequence with F49L, S65P, N90S, A167T, N186S
Briefly: co-IP; endogenous proteins from U2OS cells spread on collagen for 45 and 120 minutes; 20 mM Tris/HCl pH 7.6, 0.5% NP-40, 100 mM NaCl, 10% glycerol, 1 mM MgCl2; primary antibody 2 hours at 4°C, protein A/G beads, Western blot.

Test [6] concerns the target T6, actopaxin (in vitro binding experiment) (UniProt Q9HB97).
T6 sequence: T1 sequence
The test can be described thus: pull-down; in vitro transcription/translation pulldown; which partner was translated in vitro and which was the bait is not told.

For the substance “γ-adaptin (endogenous) (from UniProt O43747 1-822)”, in test [1], the binding result was “no binding”.

As to “β2-adaptin (endogenous) (from UniProt P63010 1-937)”, the binding result was “binds” in test [1]; “binds” in test [2]; “no binding” in test [3]; “binds” in test [4]; “binds” in test [5].

In the case of “β2-adaptin (in vitro binding experiment) (from UniProt P63010 1-937)”, in test [6], the binding entry was “binds”.
